Some of the results follow.

The experiment deals with T1, OsWOX13 (Oryza sativa, UniProt Q5QMM3 1-267).
T1 sequence: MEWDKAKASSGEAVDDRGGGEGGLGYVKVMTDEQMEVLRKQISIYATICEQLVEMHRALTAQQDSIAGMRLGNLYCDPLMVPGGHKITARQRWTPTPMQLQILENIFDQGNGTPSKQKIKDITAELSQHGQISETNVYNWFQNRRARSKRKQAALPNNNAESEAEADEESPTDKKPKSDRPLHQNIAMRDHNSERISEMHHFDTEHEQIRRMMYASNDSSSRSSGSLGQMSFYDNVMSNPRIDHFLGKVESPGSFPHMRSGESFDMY
Description: protein-binding microarray (RPBM); PBS, 2% BSA, 51.3 ng/ul salmon testes DNA, 50 uM zinc acetate, 200 nM TF, 25 C, 1 h; high values mean tight binding. To be noted: protein: recombinant; tags: N-terminal polyhistidine and DsRed monomer fusion (pET32a); label: CyDye5-dUTP incorporated in the synthesized complementary strand; 3' TTTTT single-stranded linker to array surface; dsDNA, one strand shown. In short, it runs like this: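 Using Ni–NTA, transcription factors fused N-terminally to polyhistidine and DsRed were purified after expression in E. coli BL21-CodonPlus. These were incubated at 200 nM with a blocked, double-stranded custom Agilent array for 1 h at 25 °C in a buffer containing 50 µM zinc acetate, and the array was washed. The binding signal is per-feature fluorescence intensity (arbitrary units) on an Axon 4000B scanner.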
Turning to “AACCTGATTGAAAACTGCAGGTCTCAGAGCACGTAATCTACGGAGTCACCTAGTGCAG”, the binding signal was 41800 fluorescence intensity (a.u.).
In the case of “ATTGATGATTTAATGAAACTAATTTGATATTGTAGATGTTCGGAGTCACCTAGTGCAG” it was 48300 fluorescence intensity (a.u.); in that of “TTAGATTGGTTATAGATAATTTGGAATGAGTAGTTGGCTACGGAGTCACCTAGTGCAG”, 48000 fluorescence intensity (a.u.); in that of “GAATCGCAGGATTGATAAAACGTAGGATTTTGATAGGAATCGGAGTCACCTAGTGCAG”, 7170 fluorescence intensity (a.u.).
On to “ACTACTTAACAGGTTTCAGTGTAGATCATCTACTTAGTTGCGGAGTCACCTAGTGCAG”, for which the binding signal is 3170 fluorescence intensity (a.u.).
For “GATCTGTTGATTATATATGCCCATTTGAGCGGCCAGCGTCCGGAGTCACCTAGTGCAG”, the binding signal is 8120 fluorescence intensity (a.u.).
Turning to “AAAATATTACCCCAAATCATTACAATCACTAAAACCAAGCCGGAGTCACCTAGTGCAG”, the binding signal was 3900 fluorescence intensity (a.u.).
On to “ATTACACTGACAAATTGGCCCCACATGTCAGTGACTGGGCCGGAGTCACCTAGTGCAG”, for which the binding signal is 11300 fluorescence intensity (a.u.).
“ATAATGCAAAATTGCAATTTGCAACCCCACCATGCCATTTCGGAGTCACCTAGTGCAG”: the binding signal was 5940 fluorescence intensity (a.u.).
In the case of “TGGCTTTAATTATGTACCACGATGAGAAAGCATTAGATGCCGGAGTCACCTAGTGCAG” it was 8900 fluorescence intensity (a.u.); in that of “ATGATTGGATAAGGATTGTGATTGGTGGAGAAGATAAAGTCGGAGTCACCTAGTGCAG”, 50500 fluorescence intensity (a.u.); in that of “TGTAATAATAATTTAATCGATCTTTCAAGGGGCATTCTCGCGGAGTCACCTAGTGCAG”, 8040 fluorescence intensity (a.u.).
As for “ATTCCAATCAATTGGTATGTCTCATATTTTGGCGCAGAAACGGAGTCACCTAGTGCAG”, the binding signal was 16000 fluorescence intensity (a.u.).
In the case of “AAATATTTGCGGTTGATTTGAAGAGTCGTCAGTTTGAGACCGGAGTCACCTAGTGCAG”, the binding signal is 4420 fluorescence intensity (a.u.).
“GACTTGTAATTTGTAGCAGTGGTAAGAAATAAATCTGACCCGGAGTCACCTAGTGCAG”: the binding signal is 3900 fluorescence intensity (a.u.).
“CTCATGATAGGGACAACAAAATATCCGGATTAATTCCACACGGAGTCACCTAGTGCAG”: the binding signal was 4450 fluorescence intensity (a.u.).
On to “CCATGGTTTTACTGATTTAGACATGTATTTTGGTCCGGATCGGAGTCACCTAGTGCAG”, for which the binding signal is 3500 fluorescence intensity (a.u.).
As to “ACTGAGTGTAATTTAATATTACATAGTACGAGTATATGATCGGAGTCACCTAGTGCAG”, the binding signal was 4080 fluorescence intensity (a.u.).
Turning to “GAGGTGATGACTGATGAGAGCCAGGCAGCCACCACCGCCGCGGAGTCACCTAGTGCAG”, the binding signal is 6780 fluorescence intensity (a.u.).
For the sequence “CGATCAGCTCACTTGATTGGAGTACTCTATTTGTTTTAGACGGAGTCACCTAGTGCAG”, the binding signal is 11600 fluorescence intensity (a.u.).
As for “AACAATTATTTAAATACATATACGAATGAATTAAATGTTACGGAGTCACCTAGTGCAG”, the binding signal was 3500 fluorescence intensity (a.u.).
Turning to “TCACTGACAGATGGGGTCTACAAGATAACTCAGGCATTCACGGAGTCACCTAGTGCAG”, the binding signal was 5640 fluorescence intensity (a.u.).
In the case of “GTCTGACAGAGATAGGAGAGCAGTAGTAGTAGATCACCCTCGGAGTCACCTAGTGCAG” it was 6940 fluorescence intensity (a.u.); in that of “TGGAAATTGACTCCGAATCTCTGATGAACGGCGGTGGGGCCGGAGTCACCTAGTGCAG”, 27200 fluorescence intensity (a.u.); in that of “CCTGTAAATTGCGAGACGAATTTATTAAGCCTAATTAATCCGGAGTCACCTAGTGCAG”, 17900 fluorescence intensity (a.u.).
Turning to “CAAATTTAACTGAGTTAATAGACAAATATAGTAATATTTACGGAGTCACCTAGTGCAG”, the binding signal was 12700 fluorescence intensity (a.u.).
For “CCTAAAATTACAATAATTCCAAATTCAGACAGTAAAACTACGGAGTCACCTAGTGCAG”, the binding signal is 3310 fluorescence intensity (a.u.).
Consider “ACAATCTGACCCAAATCAATCATACCGCGACATCGCATGCCGGAGTCACCTAGTGCAG”, for which the binding signal is 11100 fluorescence intensity (a.u.).
For “TTTTAACAGTAGTATAATTAGCTTGTATGAATAAACCTGTCGGAGTCACCTAGTGCAG”, the binding signal is 9210 fluorescence intensity (a.u.).
For “CCCTTGAATCAATTAATCAACTGCTTTAGTAGTTCTTACGCGGAGTCACCTAGTGCAG”, the binding signal is 21400 fluorescence intensity (a.u.).
On to “ATAGCTAATTTTCGGTATGTTACACCATCCATCTGCCATGCGGAGTCACCTAGTGCAG”, for which the binding signal is 5050 fluorescence intensity (a.u.).
In the case of “AAAATCAGACAGAAAGCCAATTTGACCTTGTTCCTTTTGTCGGAGTCACCTAGTGCAG” it was 3430 fluorescence intensity (a.u.).
On to “TTAATTATATGTTAATCAATCGCTCTGTTTTATACGTTGGCGGAGTCACCTAGTGCAG”, for which the binding signal was 33200 fluorescence intensity (a.u.).
In the case of “AAGATTTAATTGTTACGAACACAACGGCGTAATCGGATCGCGGAGTCACCTAGTGCAG”, the binding signal is 36000 fluorescence intensity (a.u.).
Regarding “GGGTTTTCACAAATTGATCTCAAATTCGATTTCTCCTCTGCGGAGTCACCTAGTGCAG”, the binding signal is 3790 fluorescence intensity (a.u.).
For “TTAGCTAATTGTACAGTGTTGTACGTCTGCATTTTGTTGCCGGAGTCACCTAGTGCAG”, the binding signal was 17600 fluorescence intensity (a.u.).
Consider “TGGCACACTAATTAGGGAGAAAATCTCTATCTTGTGTTGTCGGAGTCACCTAGTGCAG”, for which the binding signal was 9710 fluorescence intensity (a.u.).
Consider “GGTGTTCTGTTAACTAATCTGAACAACATGATGCTCATCCCGGAGTCACCTAGTGCAG”, for which the binding signal was 3290 fluorescence intensity (a.u.).
In the case of “TTGATGTGGAGTAATGGTGTTAACATGCAAATCATCCCTCCGGAGTCACCTAGTGCAG”, the binding signal is 3480 fluorescence intensity (a.u.).
Consider “TCTAATATGTTGATATTGATTACCTTGTAGCACCTACTTGCGGAGTCACCTAGTGCAG”, for which the binding signal was 19900 fluorescence intensity (a.u.).
For “ACTATTAGTGTATTATTAATTAAATATTACTGTATTAACGCGGAGTCACCTAGTGCAG”, the binding signal is 3490 fluorescence intensity (a.u.).
“CCAGTATTAATGTCAATTAGTTTTCCAATCCATGATCAAACGGAGTCACCTAGTGCAG”: the binding signal is 17000 fluorescence intensity (a.u.).
